About 11,000 (3.5%) of roughly 310,000 compounds were called active. Inconclusive results, whose numbers are uncertain, are shown with a selection of clear calls. Calls follow the shape of the dose curve; as a rule, active = well fitted inhibition curve with a large enough effect; inconclusive = small, poorly fitted or top-dose-only effect, or effect the other way; inactive = flat fitted curve, though single readings scatter. No potency is given beside an inconclusive call; the fits are too rough.
assay: VP16 counterscreen qHTS for inhibitors of ROR gamma transcriptional activity; settings: Drosophila S2 Gal4-VP16 UAS-luciferase, luminescence, 20 h; activity, negative = inhibition: at 53.6 µM (top of the series);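 also: Gal4-VP16 expression switched on by copper sulfate through the metallothionein promoter; nearly all actives have a fitted effect of over 50% in size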
Text: NIH Molecular Libraries Probe Production Network [MLPCN]
NIH Chemical Genomics Center [NCGC]
Assay Provider: Dan Littman, New York University
The retinoic acid-related orphan receptor (ROR) gamma is a transcription factor that has a central role in the differentiation of Th17 cells, a subset of T helper cells that secrete the inflammatory cytokines IL-17, IL-17F, and IL-22. Th17 cells have been implicated in graft versus host disease, autoimmune disease and asthma. ROR gamma is induced in naive T helper cells in the presence of TGF-beta combined with IL-6, IL-21, or IL-23, and thereafter directs the expression of the Th17 lineage cytokines. To identify nonspecific inhibitors, a Drosophila Schneider cell line was stably transfected with two vectors: a gene expressing a fusion of the Gal4 DNA binding domain and VP16 transactivation domain under the control of the metallothionine promoter and a Photinus luciferase reporter regulated by the Gal4 binding site enhancer, UAS. […] Small molecule inhibitors that inhibit components common to the RORgt and VP16 assays, such as the Gal4 DNA binding domain or the UAS luciferase reporter, will be active in both assays and thus scored as nonspecific.
For screening, 600 cells in 4 uL/well were dispensed into white solid 1536-well plates (Grenier) using a solenoid-based dispenser. Following transfer of 23 nL compound or DMSO vehicle by a pin tool, the plates were incubated 1 hr at ambient temperature, and 1 uL/well copper sulfate (700 uM final concentration) was added. The plates were centrifuged 15 s at 1000 RPM and incubated 20 hr at ambient temperature. After addition of 1.5 uL Photinus luciferase detection reagent, the plates were incubated 10 min at ambient temperature and then read by a ViewLux (Perkin Elmer) to detect luminescence.
% is scaled to controls: 0 for no effect and ±100 for the full control effect; potency is read from the fitted curve at half-maximal effect; tags tell the direction and shape of the fitted curve.

SMILES | Potency | activity, negative = inhibition
CC1(C)Cc2nc3sc4c(NCCO)ncnc4c3cc2CS1 | inconclusive [inhibitor, full curve] | –
S=C(NCCC(c1ccccc1)c1ccccc1)Nc1cccc(Cl)c1 | active: 15.8 µM | –
C/C(=N\NC(=O)c1cccnc1)c1cccc([N+](=O)[O-])c1 | – | inactive: -2.69% [at 10 µM]
COc1cccc(NC(=S)N2CCC(c3ccc(C)cc3)C2)c1 (stereo not drawn) | inconclusive [inhibitor, single point] | –
Cc1noc(C)c1-c1nc(Nc2ccccc2)c2ccccc2n1 | inconclusive [inhibitor, single point] | –
O=C(Nc1cccc(Cl)c1N1CCOCC1)c1ccc(Br)o1 | – | inactive: -4.14%
COc1cc(/C=N/N2CCN(c3ccccc3)CC2)ccc1OC(C)=O | – | inactive: 1.56%
CCC1(CC)NC(=O)N(CC(=O)NC(=O)NCc2ccccc2)C1=O | – | inactive: 4.74%
CCCCc1ccc(NC(=S)NCc2cccnc2)cc1 | inconclusive [inhibitor, single point] | –
COc1cc(CC(=O)OCC(=O)N2CCCCC2C)cc(OC)c1OC (stereo not drawn) | – | inactive: -1.35%
O=C(N/N=C/c1cccc2nccnc12)c1ccccc1O | active: 3.16 µM | –
Cc1cc2ccccc2n1CCNC(=O)Cc1cccc2ccccc12 | inconclusive [inhibitor, single point] | –
CCOC(=O)CN1NC2(CCC(C)CC2)NC1=S (stereo not drawn) | inconclusive [inhibitor, single point] | –
Cc1cc(-c2n[nH]c(=S)n2/N=C/C(Cl)=C/c2ccccc2)n[nH]1 | inconclusive [activator, single point] | –
COc1ccccc1CNc1ccnc(-c2ccccc2OC)n1 | – | inactive: -6.45%
CCCC(=O)N/N=C1\CS(=O)(=O)N(C)c2ccsc21 | inconclusive [inhibitor, single point] | –
COc1cc(OC)c(NS(=O)(=O)c2cc3[nH]c(=O)c(=O)[nH]c3cc2C)cc1Cl | – | inactive: -2.67%
C=CCn1c(-c2cc3cccc(OC)c3o2)n[nH]c1=S | inconclusive [inhibitor, single point] | –
CSc1nc(N)nc(-c2cccs2)c1C#N | inconclusive [inhibitor, single point] | –
C=CCn1c(-c2ccco2)n[nH]c1=S | inconclusive [inhibitor, single point] | –
C=C1C(C2(C)C=CC(=O)C(C)(C)C2CC(=O)OC)CC[C@@]2(C)C(c3ccoc3)OC(=O)C3OC132 (stereo partly drawn) | – | inactive: -12%
COc1ccc(C2CCCN2C(=S)Nc2ccc(C)c(C)c2)cc1OC (stereo not drawn) | inconclusive [inhibitor, partial curve, poor fit] | –
CCCS(=O)(=O)N1CCCC(c2nc(-c3ccc(OC)cc3)no2)C1 (stereo not drawn) | inconclusive [inhibitor, single point] | –
Cc1ccc(-c2nnn(C/C(N)=N/O)n2)cc1 | active: 2.82 µM | –

SMILES | Potency | activity, negative = inhibition
COc1ccc(NC(=O)COc2ccccc2C#N)c(S(=O)(=O)N2CCCCC2)c1 | – | inactive: -0.55%
Cc1ccc(-c2noc(C3CCCN(C(=O)c4ccc(F)cc4F)C3)n2)cc1 (stereo not drawn) | inconclusive [inhibitor, single point] | –
O=c1c2ccccc2nc2n1C(CSCc1ccc(Cl)cc1)CS2 (stereo not drawn) | – | inactive: 0.864% [at 0.365 µM]
O=C(CNc1cccc2ccccc12)N/N=C/C=C/c1ccco1 | inconclusive [inhibitor, single point] | –
CC(/C=C/c1ccco1)=N/NC(=O)CNc1ccccc1C | inconclusive [inhibitor, single point] | –
O=c1[nH]ncc(N/N=C\c2cccs2)c1Cl | inconclusive [activator, single point] | –
O=C(CN1CCN(c2nc(-c3ccc(Cl)cc3)cs2)CC1)NCc1ccco1 | inconclusive [inhibitor, single point] | –
Cc1ccc(Cn2ccsc2=NC(=O)CCl)cc1 | inconclusive [inhibitor, single point] | –
CCCN1CCC(=O)N(CCSc2ccccc2)CC1 | inconclusive [inhibitor, partial curve] | –
CCCCCCOc1ccc(NC(=O)CC2C(=O)N(CC)C(=S)N2Cc2ccco2)cc1 (stereo not drawn) | inconclusive [inhibitor, single point] | –
C/C(=C\c1ccccc1)C(=O)Nc1ccc(Cl)cn1 | inconclusive [inhibitor, single point] | –
Cc1ccc2nc3c(cc2c1)c(NC(=O)C(C)(C)C)nn3CC(C)C | – | inactive: -10.1%
O=C(Cn1nc(C(=O)O)c2ccccc2c1=O)NC12CC3CC(CC(C3)C1)C2 | – | inactive: 2.84%
O=C(N/N=C/C=C\c1ccc([N+](=O)[O-])cc1)c1cccnc1 | inconclusive [inhibitor, partial curve] | –
CC(C)N1CCN(Cc2ccc(C#CC(C)(C)O)s2)CC1CCO (stereo not drawn) | – | inactive: -6.16%
CC(C)C[C@H](NC(=O)c1[nH]cnc1C(=O)N[C@@H](Cc1ccccc1)C(=O)OCc1ccccc1)C(=O)OCc1ccccc1 | active: 11.2 µM | –
O=S(=O)(c1ccccc1)N1CCC2(CCCN(c3ccncc3)C2)CC1 | inconclusive [inhibitor, single point] | –
Cc1ccc(NS(=O)(=O)N2CCOCC2)cc1 | – | inactive: 7.51%
CCN(CC)c1ccc(/C=N/Nc2nc3ccccc3[nH]2)c(O)c1 | active: 2.82 µM | –
CCOc1ccc(Nc2nc(N)nc(CCl)n2)cc1 | inconclusive [inhibitor, single point] | –
CC(/C=N/NC(=O)c1ccc(CN2c3cccc4cccc(c34)S2(=O)=O)cc1)c1ccccc1 (stereo not drawn) | inconclusive [inhibitor, single point] | –
Cc1onc(-c2ccccc2)c1C(=O)NNC(=S)NC(=O)c1ccc(Cl)cc1Cl | active: 11.2 µM | –
CCN(Cc1ccccc1)S(=O)(=O)c1ccc(C(=O)Nc2nnc(C3CC3)o2)cc1 | active: 0.562 µM | –
CCOC(=O)C1=NNC(C(=O)c2ccccc2)C1c1ccc(Cl)cc1 (stereo not drawn) | – | inactive: 1.87%
